Results are given in words; binding and its absence hold for the method and conditions named. For some of these results: Binding seen in cells or lysates may run through a third protein. Some entries that bind do so weakly or less than the wild type. For some of these results: Where a sequence is shown, tags or fusion partners need not be part of it.
Key:
[1] = molecular target: T1, RDM1, yeast two-hybrid fusion (Arabidopsis) (UniProt Q9LUJ3); test: two-hybrid; yeast two-hybrid, ProQuest system, MaV203 strain, pDEST22/pDEST32 fusions, growth on medium with 3-AT
T1 sequence: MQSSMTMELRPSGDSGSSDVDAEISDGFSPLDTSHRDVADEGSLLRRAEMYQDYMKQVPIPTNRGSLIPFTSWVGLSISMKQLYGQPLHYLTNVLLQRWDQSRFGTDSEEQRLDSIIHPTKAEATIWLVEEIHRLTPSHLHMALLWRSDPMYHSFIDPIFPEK

[2] = molecular target: DMS3, yeast two-hybrid fusion (Arabidopsis) (UniProt Q94A79); test: as above
6xHis-RDM1 [3] = molecular target: T2, 6xHis-RDM1 (Arabidopsis, UniProt Q9LUJ3 3-163); test: pull-down; His-RDM1 co-expressed with DMS3 WT or G339E in E. coli; lysate on magnetic Ni-NTA agarose beads, 4 °C; wash 20 mM HEPES pH 7.5, 200 mM NaCl, 50 mM imidazole, 0.05% Tween20; SDS-PAGE and protein stain
T2 construct: RDM1, Arabidopsis; also called His tag-RDM1; source: E. coli Rosetta2 (DE3), pCDFDuet-1, co-expressed with DMS3; purified within the DR or DDR′ complex, or in lysate (pulldown); not shown: 6xHis, N-terminal, kept
T2 sequence: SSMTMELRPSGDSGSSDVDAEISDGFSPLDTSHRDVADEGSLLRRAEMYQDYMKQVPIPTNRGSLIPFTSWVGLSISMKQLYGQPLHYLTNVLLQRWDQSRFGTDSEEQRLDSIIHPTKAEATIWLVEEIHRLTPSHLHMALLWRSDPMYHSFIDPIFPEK

6xHis-RDM1 [4] = molecular target: T2, 6xHis-RDM1; test: cross-linking; purified DDR′ complex (50 μg) cross-linked with 0.5 mM DSS (30 min) or 15 mM ADH and DMTMM (10 min) at room temperature; cross-linked peptides identified by LC-MS/MS and xQuest; both purified
6xHis-RDM1 [5] = molecular target: T2, 6xHis-RDM1; test: SEC; His tag affinity-purified DR complex co-expressed in E. coli, HiLoad 16/600 Superdex 200 pg, 20 mM HEPES-KOH pH 7.5, 150 mM NaCl; both purified
6xHis-RDM1 [6] = molecular target: T2, 6xHis-RDM1; test: cryo-EM structure; single-particle cryoEM of the purified DDR′ complex (DRD1 peptide 7-DMS3-RDM1), 3.5 Å; both purified
[7] = molecular target: DRD1, yeast two- and three-hybrid fusion (Arabidopsis) (UniProt Q9SIW2); test: two-hybrid; yeast two-hybrid, ProQuest system, MaV203 strain, pDEST22/pDEST32 fusions, growth on medium with 3-AT
[8] = molecular target: DMS3-RDM1 complex in the yeast three-hybrid (Arabidopsis) (UniProt Q94A79+Q9LUJ3); test: two-hybrid; yeast three-hybrid: Gal4 BD and AD fusions plus RDM1 from pYES under the constitutive ADH1 promoter; MaV203; growth on SD with increasing 3-AT
[9] = molecular target: T3, DRD1 peptide 7 with C-terminal Strep II tag (Arabidopsis) (UniProt Q9SIW2); test: SEC; Strep II tag affinity-purified DDR′ complex (bait DRD1 peptide 7-Strep II) co-expressed in E. coli, HiLoad 16/600 Superdex 200 pg, 20 mM HEPES-KOH pH 7.5, 150 mM NaCl; both purified
T3 sequence: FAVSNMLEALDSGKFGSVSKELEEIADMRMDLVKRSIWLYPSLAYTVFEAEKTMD

[10] = molecular target: T4, DMS3, yeast two-hybrid fusion (Arabidopsis), Q94A79; test: two-hybrid; yeast two-hybrid, ProQuest system, MaV203 strain, pDEST22/pDEST32 fusions, growth on medium with 3-AT; settings: remark: other sources report otherwise
T4 chain: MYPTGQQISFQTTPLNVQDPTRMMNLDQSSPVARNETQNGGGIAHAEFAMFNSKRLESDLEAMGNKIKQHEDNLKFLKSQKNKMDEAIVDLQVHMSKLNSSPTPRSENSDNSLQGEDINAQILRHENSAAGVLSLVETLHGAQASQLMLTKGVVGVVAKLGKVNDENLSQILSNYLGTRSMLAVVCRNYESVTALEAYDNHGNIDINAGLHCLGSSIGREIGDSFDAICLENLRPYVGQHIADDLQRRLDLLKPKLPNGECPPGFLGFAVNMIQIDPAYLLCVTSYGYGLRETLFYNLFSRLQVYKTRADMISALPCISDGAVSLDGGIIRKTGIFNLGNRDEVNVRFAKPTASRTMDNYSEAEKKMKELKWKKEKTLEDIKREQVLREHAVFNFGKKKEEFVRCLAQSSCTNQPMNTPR

[11] = molecular target: T5, RDM1, yeast two-hybrid fusion (Arabidopsis), Q9LUJ3; test: as above; settings: remark: other sources report otherwise
T5 chain: T1 sequence

In the case of “DMS3, yeast two-hybrid fusion (from UniProt Q94A79 1-420)”, the binding [1] is reported as “binds” and the binding [2] is reported as “binds”.

B1: DMS3 (recombinant, co-expressed with His-RDM1) (natural protein, Arabidopsis)
chain: YPTGQQISFQTTPLNVQDPTRMMNLDQSSPVARNETQNGGGIAHAEFAMFNSKRLESDLEAMGNKIKQHEDNLKFLKSQKNKMDEAIVDLQVHMSKLNSSPTPRSENSDNSLQGEDINAQILRHENSAAGVLSLVETLHGAQASQLMLTKGVVGVVAKLGKVNDENLSQILSNYLGTRSMLAVVCRNYESVTALEAYDNHGNIDINAGLHCLGSSIGREIGDSFDAICLENLRPYVGQHIADDLQRRLDLLKPKLPNGECPPGFLGFAVNMIQIDPAYLLCVTSYGYGLRETLFYNLFSRLQVYKTRADMISALPCISDGAVSLDGGIIRKTGIFNLGNRDEVNVRFAKPTASRTMDNYSEAEKKMKELKWKKEKTLEDIKREQVLREHAVFNFGKKKEEFVRCLAQSSCTNQPMNTPR
notes: DMS3, Arabidopsis; residues 1-42 and 410-420 are said not to be visible in the maps; DMS3h, DMS3hc1 and DMS3hc2 are conformational states of the same chain in the structures; also called DMS3 WT; DMS3h; source: E. coli Rosetta2 (DE3), pCDFDuet-1, co-expressed with His-RDM1; purified within the DR or DDR′ complex, or in lysate (pulldown)
For B1, the binding (6xHis-RDM1 [3]) was “binds”, the binding (6xHis-RDM1 [4]) was “binds” and the binding (6xHis-RDM1 [5]) was “binds”. The binding (6xHis-RDM1 [6]) was “binds”.

B2: RDM1, yeast two-hybrid fusion (protein, UniProt Q9LUJ3 1-163)
chain: T1 sequence
With B2 the binding [1] was “binds”.

B3: DRD1, yeast two- and three-hybrid fusion (protein, UniProt Q9SIW2 1-888)
chain: MGFVYIVMTGYYKNVHKRKQNQVDDGPEAKRVKSSAKVIDYSNPFAVSNMLEALDSGKFGSVSKELEEIADMRMDLVKRSIWLYPSLAYTVFEAEKTMDNQQVVEGVINLDDDDDDDTDVEKKALCVVPSSSEIVLLDSDDEDNERQRPMYQFQSTLVQHQKNQGDVTPLIPQCSFEEVDLGRGKEMPSAIKAIVEGQTSRGKVLPIENGVVNEKGVYVGVEEDDSDNESEAADEDLGNIWNEMALSIECSKDVARETSHKEKADVVEDCEHSFILKDDMGYVCRVCGVIEKSILEIIDVQFTKAKRNTRTYASETRTKRFGESDNELKFSEEGLMIGGLAAHPTHAAEMKPHQIEGFQFLCSNLVADDPGGCIMAHAPGSGKTFMIISFMQSFLAKYPQAKPLVVLPKGILPTWKKEFVRWQVEDIPLLDFYSAKAENRAQQLSILKQWMEKKSILFLGYQQFSTIVCDDTTDSLSCQEILLKVPSILILDEGHTPRNEDTNLLQSLAQVQTPRKVVLSGTLYQNHVKEVFNILNLVRPKFLKLDTSKSAVKRILAYTPCDVRGRLTGSNSDMASMFNETVEHTLQKSEDFTVKIKVIQDLREMTKKVLHYYKGDFLDELPGLADFTVVLNLSPKQLNEVKKLRREKRKFKVSAVGSAIYLHPKLKVFSDKSDDVSDTTMDEMVEKLDLNEGVKAKFFLNLINLCDSAGEKLLVFSQYLIPLKFLERLAALAKGWKLGKEVFVLTGNTSSEQREWSMETFNSSPDAKIFFGSIKACGEGISLVGASRILILDVPLNPSVTRQAIGRAFRPGQKKMVHAYRLIAGSSPEEEDHNTCFKKEVISKMWFEWNEYCGYQNFEVETIDVDEAGDTFLESPALREDIRVLYKR
With B3 the binding [7] was “no binding” and the binding [8] was “binds”.

B4: DRD1 peptide 7, yeast three-hybrid fusion (domain or fragment, UniProt Q9SIW2 45-99)
chain: T3 sequence
For B4, the binding [8] was “binds”.

B5: DR complex (DMS3-RDM1) (complex, Arabidopsis)
chain 1: T2 sequence
chain 2: B1 chain
notes: RDM1, Arabidopsis; DMS3, Arabidopsis; residues 1-42 and 410-420 are said not to be visible in the maps; Stoichiometry 4 DMS3 : 2 RDM1 by cryo-EM; also called DMS3-RDM1 complex; source: E. coli Rosetta2 (DE3), co-expressed from pCDFDuet-1, purified (His Trap HP or, with DRD1 peptide 7, Strep Trap HP; Superdex 200); not shown: 6xHis, N-terminal, kept; copies: 2 + 4
B5 was tested, and the binding [9] was “binds”.

B6: DRD1, yeast two- and three-hybrid fusion, Q9SIW2 1-888 (protein)
chain: B3 chain
In the case of B6, the binding [10] is reported as “no binding” and the binding [11] is reported as “no binding”.

— PMC6718625, “CryoEM structures of Arabidopsis DDR complexes involved in RNA-directed DNA methylation” (Nature Communications, 2019)
